{"source": "PubChem BioAssay AID493208", "about": "(National Center for Advancing Translational Sciences (NCATS), 2011)", "note": "The whole screen tested about 44,000 compounds, of which about 340 (0.77%) were called active. Another 5% or so got no clear call; they are omitted. The call rests on the fitted dose curve; in most records, active means well fitted inhibition curve with a large enough effect; inconclusive means small, poorly fitted or top-dose-only effect; inactive means flat fitted curve, though single readings scatter. This is one part of the list. Potency means the concentration at half of the fitted maximal effect."}
{"experiment": "Acumen qHTS Assay for Inhibitors of the mTORC1 Signaling Pathway in MEF (Tsc2-/-, p53-/-) Cells: Sytravon; further: nearly all actives have a fitted effect of over 50% in size;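 on activity change, negative = inhibition: plate controls were DMSO for no effect and rapamycin for full effect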", "conditions": "phospho-rpS6 immunofluorescence/PI, 24 h; series mostly up to 38.3 µM; activity change, negative = inhibition: at the top concentration", "outline": "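Read-out: phospho-S6 Alexa-488 intensity over PI intensity per well, scored as % active cells using thresholds from rapamycin (7.5 nM) and DMSO controls. Tsc2-/-, p53-/- MEFs exposed to compound for 24 h; PI cell count recorded as viability.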"}
{"smiles": "CCOCCn1ccc2c(OCC(=O)NCc3ccc(F)cc3)cccc2c1=O", "activity change, negative = inhibition": "inactive: 1.03%"}
{"smiles": "COc1ccc(C2CC(=O)N(Cc3ccccc3C)c3c2c(C)nn3-c2nc(C)cc(C)n2)c(OC)c1", "note": "(centres undefined)", "activity change, negative = inhibition": "inactive: 0.145%"}
{"smiles": "COc1ccc(-c2nc3c4ccccc4n(CC(=O)Nc4ccc(C(C)C)cc4)c(=O)n3n2)cc1", "activity change, negative = inhibition": "inactive: 0.562%"}
{"smiles": "COc1ccc(NC(=O)CSC2=Nc3ccccc3C3=NC(CC(=O)NCc4ccccc4OC)C(=O)N23)cc1Cl", "note": "(centres undefined)", "activity change, negative = inhibition": "inactive: -4.34%"}
{"smiles": "CC(C)(C)c1ccc(-c2nc(SCCOc3ccc(Cl)cc3)n3[nH]c(=O)cc3n2)cc1", "activity change, negative = inhibition": "inactive: -8.28%"}
{"smiles": "Cc1ccccc1-n1c(SCC(=O)Nc2ccc(Cl)cc2Cl)nc(O)cc1=O", "activity change, negative = inhibition": "inactive: 7.94%"}
{"smiles": "CC(=O)N1CCc2c(sc3c2c(=O)n(-c2ccc(F)cc2)c(=O)n3Cc2cc(C)ccc2C)C1", "activity change, negative = inhibition": "inactive: -5.58%"}
{"smiles": "CCc1sc(Nc2cccc(C)c2)nc1-c1cc2cccc(OC)c2oc1=O", "activity change, negative = inhibition": "inactive: -5.59%"}
{"smiles": "COc1ccc(-c2noc(-c3ccc(N4CCN(C)CC4)c([N+](=O)[O-])c3)n2)cc1", "activity change, negative = inhibition": "inactive: 0.703%"}
{"smiles": "COc1ccc(S(=O)(=O)c2c(O)c(C)cc(NS(=O)(=O)c3ccc(Cl)cc3)c2C(C)C)cc1", "activity change, negative = inhibition": "inactive: 3.24%"}
{"smiles": "COc1cc(C(=O)N2CCN(CCc3ccncc3)CC2)cc(OC)c1OC", "activity change, negative = inhibition": "inactive: -12.2%"}
{"smiles": "COc1cccc(-n2c(=O)c3c(C)c(C(=O)N(C)C)sc3n(Cc3cccc(C)c3)c2=O)c1", "activity change, negative = inhibition": "inactive: -0.928%"}
{"smiles": "COc1ccc(-c2nc(C)c(CCNC(=O)C(=O)Nc3ccccc3F)s2)cc1", "activity change, negative = inhibition": "inactive: 2.29%"}
{"smiles": "Cc1ccc(NC(=O)Cn2c(=O)n(CC3CCC(C(=O)NC(C)C)CC3)c(=O)c3sccc32)cc1", "note": "(centres undefined)", "activity change, negative = inhibition": "inactive: -12.2%"}
{"smiles": "COc1ccccc1-n1nc(-c2ccccc2)c2cnc3c(F)cc(F)cc3c21", "activity change, negative = inhibition": "inactive: -15.4%"}
{"smiles": "COc1ccc(C(CNC(=O)COc2cc(C)cc(C)c2)N2CCCCC2)cc1", "note": "(centres undefined)", "activity change, negative = inhibition": "inactive: -15.5%"}
{"smiles": "COc1ccc(CCN2CCC(CNC(=O)c3cnn(-c4ccc(C)cc4)c3C3CCN(C(=O)OC(C)(C)C)CC3)CC2)cc1", "activity change, negative = inhibition": "inactive: -17.2%"}
{"smiles": "Cc1ccc(NC(=O)CSc2nc3ccc(Br)cc3[nH]2)c(C)c1", "activity change, negative = inhibition": "inactive: -11.5%"}
{"smiles": "CC1=C(c2ccc(C(C)C)cc2)S(=O)(=O)NC1=NCc1ccccc1C", "activity change, negative = inhibition": "inactive: 0.169%"}
{"smiles": "CN(C)CCN(C(=O)c1ccco1)c1nc2c(F)cc(F)cc2s1", "activity change, negative = inhibition": "inactive: 0.969%"}
{"smiles": "CC1CCN(C(=O)CSc2c3c(nc4ccc(Cl)cc24)CCCC3)CC1", "activity change, negative = inhibition": "inactive: -1.61%"}
{"smiles": "COc1ccc(S(=O)(=O)N(CC(=O)Nc2ccc(F)c(Cl)c2)c2ccc(C)cc2)cc1OC", "activity change, negative = inhibition": "inactive: -8%"}
{"smiles": "O=C(COc1ccc(F)cc1)Nc1nnc(S(=O)(=O)N2CCc3ccccc32)s1", "activity change, negative = inhibition": "inactive: -0.369%"}
{"smiles": "Cc1nc2c3ccccc3nc(NNC(=O)CCC(=O)N3CCN(c4cccc(Cl)c4)CC3)n2n1", "activity change, negative = inhibition": "inactive: 0.456%"}
{"smiles": "Cc1cccc(NC(=O)CSc2nc3ccccc3nc2N2CCC(C)CC2)c1", "activity change, negative = inhibition": "inactive: -4.61%"}
{"smiles": "Cc1ccc(Nc2cc(C)nc(-n3nc(C)cc3C)n2)cc1", "activity change, negative = inhibition": "inactive: -17.5%"}
{"smiles": "O=C(Nc1ccc(OC(F)(F)F)cc1)C1CCN(S(=O)(=O)c2ccc3[nH]c(=O)ccc3c2)CC1", "activity change, negative = inhibition": "inactive: -3.73%"}
{"smiles": "Cc1ccc(-c2noc(CNC(=O)COc3cc(C)c(Br)c(C)c3)n2)cc1", "activity change, negative = inhibition": "inactive: -0.758%"}
{"smiles": "Cn1cnc(S(=O)(=O)N2CCC(C(=O)Nc3ccc(F)cc3F)CC2)c1", "activity change, negative = inhibition": "inactive: 0%"}
{"smiles": "CCOc1ccc(CNC(=O)c2ccc3c(c2)sc2nc(-c4ccccc4)cn23)cc1", "activity change, negative = inhibition": "inactive: 5.45%"}
{"smiles": "O=C(NC1CCCCC1)c1ccc2c(c1)N(Cc1cccc(F)c1)C(=O)c1ccccc1S2", "activity change, negative = inhibition": "inactive: -1.54%"}
{"smiles": "O=C(NC1CCCCC1)c1ccc2c(c1)sc1nc(-c3ccc(F)cc3)cn12", "activity change, negative = inhibition": "inactive: 8.25%"}
{"smiles": "Cc1ccc(-n2nc(C(=O)N3CCN(c4ccc(F)cc4)CC3)c(=O)n(C)c2=O)cc1", "activity change, negative = inhibition": "inactive: 0.394%"}
{"smiles": "COc1ccc2nc(NC(=O)c3nc(S(=O)(=O)Cc4ccccc4F)ncc3Cl)sc2c1", "Potency": "active: 14.7 µM"}
{"smiles": "COc1ccc(NCc2cc3cc4c(cc3n(CC(=O)Nc3cccc(F)c3)c2=O)OCO4)cc1", "activity change, negative = inhibition": "inactive: 0.644%"}
{"smiles": "COC(=O)c1ccc(CSc2nc3c([nH]c4ccccc43)c(=O)n2-c2ccc(F)cc2)o1", "activity change, negative = inhibition": "inactive: -6.49%"}
{"smiles": "Clc1ccccc1N1CCN(Cc2nnc(-c3ccccc3)o2)CC1", "activity change, negative = inhibition": "inactive: 2.44%"}
{"smiles": "Cc1ccc(Cl)cc1-n1c(CCC(=O)O)ccc1-c1cccs1", "activity change, negative = inhibition": "inactive: 3.26%"}
{"smiles": "COc1cc(OC)c(NC(=O)Cn2c(=O)c(C(F)(F)F)nc3ccccc32)cc1Cl", "activity change, negative = inhibition": "inactive: 1.13%"}
{"smiles": "CCc1cccc(NC(=O)Cn2c(=O)n(-c3ccccc3C)c(=O)c3c2c2cc(C)ccc2n3C)c1", "activity change, negative = inhibition": "inactive: -0.556%"}
{"smiles": "Cc1ccc(CNC(=O)c2ccc(CS(=O)(=O)Cc3ccc(F)cc3)o2)cc1", "activity change, negative = inhibition": "inactive: -9.4%"}
{"smiles": "CCCCc1nn2c(=O)cc(COC(=O)c3cccc(NC(=O)c4cccc(Cl)c4)c3)nc2s1", "activity change, negative = inhibition": "inactive: 27.8%"}
{"smiles": "Cc1ccccc1CN1CCc2nc(N3CCN(c4ncccn4)CC3)ncc2C1", "activity change, negative = inhibition": "inactive: -1.33%"}
{"smiles": "COc1ccc(CCCc2nnc(SCC(=O)Nc3cccc(C)c3)o2)cc1C", "activity change, negative = inhibition": "inactive: 3.37%"}
{"smiles": "CCCCN(C)CCCNC(=O)Cn1ncc2c3ccccc3n(Cc3cccc(Cl)c3)c2c1=O", "activity change, negative = inhibition": "inactive: -5.12%"}
{"smiles": "Cc1cccc(N2CCN(S(=O)(=O)c3cn(C)c(C)n3)CC2)c1C", "activity change, negative = inhibition": "inactive: -2.87%"}
{"smiles": "CCOc1ccccc1C(=O)Oc1c(S(=O)(=O)c2ccc(C)cc2)c(C)nn1-c1ccccc1", "activity change, negative = inhibition": "inactive: 1.59%"}
{"smiles": "COc1cc(NC(=O)CSc2nc(-c3cccs3)cc(C(F)(F)F)n2)cc(OC)c1OC", "activity change, negative = inhibition": "inactive: -13%"}
{"smiles": "COc1cccc(-n2c(SCC(=O)N3CCc4ccccc43)nc3c([nH]c4ccccc43)c2=O)c1", "activity change, negative = inhibition": "inactive: 3%"}
{"smiles": "O=C(Nc1ccc(F)cc1F)c1cccc2c1C(=O)N(C1CCCCC1)C2", "activity change, negative = inhibition": "inactive: -6.37%"}
{"smiles": "Cc1cccc(CSc2nc3c(c(=O)[nH]2)CCC3)c1", "activity change, negative = inhibition": "inactive: -2.59%"}
{"smiles": "CCc1ccc(C2CC(=O)c3c([nH]c(C(=O)OC4CCC(C)CC4)c3C)C2)cc1", "note": "(centres undefined)", "activity change, negative = inhibition": "inactive: -3.17%"}
{"smiles": "CNC(=O)c1ccc2nc(CCc3ccccc3)oc2c1", "activity change, negative = inhibition": "inactive: -3.76%"}
{"smiles": "COc1ccc(S(=O)(=O)NCc2cccn2Cc2cccc(C)c2)cc1Cl", "activity change, negative = inhibition": "inactive: 8.21%"}
{"smiles": "COc1ccc(-c2cc(C(F)(F)F)nc(SCC(=O)N3CCCCC3)n2)cc1OC", "activity change, negative = inhibition": "inactive: -5.39%"}
{"smiles": "CCc1cccc(C)c1NC(=O)C(CC)n1nc(C)c2c(C)n(-c3ccccc3)nc2c1=O", "note": "(centres undefined)", "activity change, negative = inhibition": "inactive: -8.77%"}
{"smiles": "COc1ccc(-c2nc(SCC(=O)Nc3ccccc3)c(-c3ccc(F)cc3)[nH]2)cc1OC", "activity change, negative = inhibition": "inactive: 1.51%"}
{"smiles": "CCS(=O)(=O)N1CCc2cc(C(=O)N3CCN(c4ccc(OC)cc4)CC3)ccc21", "activity change, negative = inhibition": "inactive: 1.79%"}
{"smiles": "COc1ccc(OC)c(S(=O)(=O)N2Cc3ccccc3CC2C(=O)Nc2ccc(C)cc2C)c1", "note": "(centres undefined)", "activity change, negative = inhibition": "inactive: -12.8%"}
